Results: PubChem BioAssay AID1345082 (National Center for Advancing Translational Sciences (NCATS), 2018)
About 4,000 (4.3%) of roughly 94,000 compounds were called active. This list was built around the results that the source calls inconclusive (neither active nor inactive); the mix of calls is not that of the screen. The call rests on the fitted dose curve; in most records, active means well fitted inhibition curve with a large enough effect; inconclusive means small, poorly fitted or top-dose-only effect; inactive means no such curve, though single readings can be large or run the other way. Potencies of inconclusive entries are doubtful fits and often do not repeat.

test: Cytotoxic Profiling in NIH 3T3 Cell Line of Diverse Libraries Using Quantitative High-Throughput Screening; settings: NIH 3T3 viability, CellTiter-Glo ATP luminescence, 48-72 h; activity change, negative = cytotoxicity: at 96.7 µM (top of the series); series mostly up to 96.7 µM; further: nearly all actives have a fitted effect of over 55% in size
Method in brief: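 First NIH 3T3 cells are plated at 400 cells/well; next compound is pinned in; then plates incubate 48 or 72 hr at 37 °C; finally CellTiter-Glo is added and luminescence read after 10 min.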
On the % scale 0 is the no-effect control and ±100 the full control effect; potency means the concentration at half of the fitted maximal effect; tags describe the fitted curve by direction and shape.

Structure (SMILES)	Potency	activity change, negative = cytotoxicity	outcome
COc1ccc(CN2CC3(CCN(C(=O)Nc4ccc(OC)c(F)c4)CC3)C2=O)cc1	inconclusive: 50.1 µM [inhibitor, partial curve, poor fit]		
Cn1c(CNC(=O)C2Cn3cccc3C(=O)N2Cc2ccccc2)nc2ccccc21 (centres undefined)	active: 31.6 µM		
CC(C)NC(=O)C[C@@H]1CCNC[C@@H]1Cc1cc(CC2CCCCC2)on1	active: 100 µM		
CNC(=O)c1cc2cc(-c3c(C)noc3C)nc(-c3cccnc3)c2o1	inconclusive: 22.4 µM [inhibitor, full curve, poor fit]		
O=C(c1cccnc1)N1CC(Oc2ccc(-c3noc(-c4ccccc4)n3)cc2)C1		inactive: -15.2%	
O=[S+]([O-])(c1ccccc1)N1CC(N2CCc3ccccc32)C1	inconclusive: 31.6 µM [inhibitor, partial curve, poor fit]		
CC(C)CNC(=O)c1cc(-c2ccccc2C(F)(F)F)nc2c1cnn2C	inconclusive: 39.8 µM [inhibitor, partial curve, poor fit]		
COc1ccc(-c2cccc(C(=O)N3CCC(NC(=O)c4ccccc4OC)CC3)c2)nn1		inactive: -18.8%	
CC(C)OCCCNC(=O)CN1CC2CC(C1)[C@H]1CCCC(=O)N1C2 (some centres undefined)			inactive
CC[C@@H]1[C@@H](OCc2ccccc2)c2ccccc2[S+](=O)([O-])N1CC(=O)OC	inconclusive: 56.2 µM [inhibitor, partial curve, poor fit]		
COCc1ccc2c(c1)c(OC(C)(C)C(=O)NCc1cnccn1)nn2CCC(C)C	inconclusive: 15.8 µM [inhibitor, full curve, poor fit]		
COc1ccc(Cn2c(=O)c(C(=O)NCCSC)nc3cccnc32)cc1		inactive: -22.9%	
CC(=O)Nc1ccc(CN2CCn3c(nnc3-c3ccc(Cl)cc3)C2)cc1	inconclusive: 70.8 µM [inhibitor, single point]		
O=C1NCCOCCN(S(=O)(=O)c2cccc3nsnc23)[C@@H]2CCCC[C@H]12		inactive: -7.66%	
CCOC(=O)C1CCN(C(=O)c2cc(Cn3ccnc3C(C)C)[nH]n2)CC1		inactive: 0.593%	
Cc1ccc(C(=O)N2CCc3[nH]nc(C(=O)NCCCc4ccccc4)c3C2)cc1F	inconclusive: 50.1 µM [inhibitor, partial curve, poor fit]		
COc1ccc(CN2C[C@@H]3C(=O)N(CCN4CCc5ccccc5C4)C(=O)[C@@H]3C2)cc1	inconclusive: 11.2 µM [inhibitor, full curve, poor fit]		
C[C@H]1[C@@H]2[C@H]3OC(=O)[C@@H](C)[C@@H]3CC[C@@]2(C)CC[C@@H]1NC(=O)C1CCCCC1	inconclusive: 89.1 µM [inhibitor, partial curve]		
CCOC(=O)c1oc2ccc(S(=O)(=O)N3CC4CN(C)CC(C3)O4)cc2c1C	inconclusive: 28.2 µM [inhibitor, partial curve, poor fit]		
COC(=O)[C@@H]1Cc2c([nH]c3ccccc23)[C@H]2C[C@@H](NCCNC(C)=O)C[C@@H](c3ccccc3F)N21	active: 79.4 µM		
COCCNC(=O)c1cc(C2CC2)nc2c1c(C1CCCN1)nn2-c1ccccc1 (centres undefined)	inconclusive: 44.7 µM [inhibitor, partial curve, poor fit]		
COc1cccc(-c2cccc(C(=O)N3CCCC3C(=O)NCC(F)F)c2)c1 (centres undefined)		inactive: -8.2%	

Structure (SMILES)	Potency	activity change, negative = cytotoxicity	outcome
c1cncc(-c2ccnc(NCCc3noc(C4CCCC4)n3)n2)c1	inconclusive: 35.5 µM [inhibitor, partial curve, poor fit]		
O=C(c1ccc(OC2CCN(C(=O)c3ccsc3)CC2)nc1)N1CCOCC1		inactive: -24.6%	
Cc1noc([C@@H]2CC(F)(F)CN2C(=O)c2ocnc2C)n1		inactive: -3.09%	
COC(=O)CNC(=O)c1nc(-c2ccc(Cl)nc2)c2ccccn12	inconclusive: 70.8 µM [inhibitor, single point]		
Cc1ccccc1CN1CCC2(CC1)COCCN2C(=O)OCc1ccccc1	inconclusive: 89.1 µM [inhibitor, partial curve]		
O=C(c1ccccc1)N1CCCC2(CNc3ncccc3[S+](=O)([O-])N2)C1 (centres undefined)		inactive: 1.08%	
Cc1ccccc1-c1nccc2c(=O)cc(N(C)C3CCOCC3)oc12	active: 25.1 µM		
COC[C@@]12CC[C@@H](N3CCOCC3)C[C@H]1CCN(Cc1cnc(N(C)C)nc1)C2		inactive: -17.7%	
O=C(C1CCCC1)N1CCC(C(=O)N2CCCC(c3nc4ccncc4[nH]3)C2)CC1 (centres undefined)		inactive: -15.5%	
COc1ccc(OC)c(NC(=O)C2CCN(c3cnc4nccnc4c3)CC2)c1	inconclusive: 35.5 µM [inhibitor, partial curve, poor fit]		
COc1cc(-c2ccnc3nc(C4CCCCC4)nn23)cc(OC)c1OC	inconclusive: 50.1 µM [inhibitor, partial curve, poor fit]		
CC(=O)N1CCC(Oc2ccc(Cl)cc2C(=O)N(C)Cc2sccc2C)CC1	inconclusive: 70.8 µM [inhibitor, single point]		
O=C(C1CCC1)N1CCC(OCc2ccccc2)C1 (centres undefined)		inactive: -2.19%	
Cn1ncc2c(C(=O)NCC3CCCCCC3)cc(-c3ccccc3F)nc21	inconclusive: 17.8 µM [inhibitor, full curve]		
COCCOc1cc(=O)n2c(c1C(=O)NCc1ccc(OC)cc1)CCOCC2		inactive: -26.2%	
Cc1nnc(-c2cc(-c3cccc(F)c3)ccn2)n1C1CCCCC1	inconclusive: 89.1 µM [inhibitor, partial curve]		
O=C(NC1CC1)c1ccc(CC2CCN(C(=O)c3ccc4ccccc4n3)CC2)cc1	inconclusive: 44.7 µM [inhibitor, partial curve, poor fit]		
Cc1nnc2ccc(N3CCC(NC(=O)Cc4cccc(Cl)c4)C3)nn12 (centres undefined)	inconclusive: 56.2 µM [inhibitor, partial curve, poor fit]		
COc1ccc(CNC(=O)C2CN(C3CCCCC3)C(=O)N2)cc1 (centres undefined)		inactive: -7.2% [at 138 µM]	
O=C1COc2ccc(NCc3cccs3)nc2CN1Cc1ccc(F)cc1	inconclusive: 50.1 µM [inhibitor, partial curve, poor fit]		
O=C(NCc1cc(F)cc(F)c1)c1nc(-c2ccc(F)cc2)c2ccccn12	inconclusive: 22.4 µM [inhibitor, full curve, poor fit]		
CC(=O)Nc1ccc(S(=O)(=O)N[C@H]2CO[C@H]3[C@@H]2OC[C@H]3OC(=O)Nc2ccc(C(C)=O)cc2)cc1		inactive: -22%	

Structure (SMILES)	Potency	activity change, negative = cytotoxicity	outcome
CCCCn1c(=O)c(C(=O)N2CCN([S+](=O)([O-])c3ccc(C)cc3)CC2)nc2cccnc21	inconclusive: 70.8 µM [inhibitor, single point]		
COc1ccc(N2CCN(C(=O)C3(c4ccc(NC(=O)C(C)C)cc4)CCC3)CC2)cc1	inconclusive: 10 µM [inhibitor, partial curve, poor fit]		
COc1ccc(CN2CC(Oc3ccc(F)c(F)c3)C2)cc1	inconclusive: 56.2 µM [inhibitor, partial curve, poor fit]		
COc1nccnc1NC1CCN(C(=O)c2ccccc2C)CC1		inactive: 3.21%	
COc1cc(-c2cn(C)c(=O)n3cc(CNc4ccccc4)nc23)ccn1	inconclusive: 20 µM [inhibitor, full curve, poor fit]		
Cn1c([C@H]2CCN(S(=O)(=O)c3cccc4cccnc34)C2)nc2ccccc21	inconclusive: 100 µM [inhibitor, single point]		
O=S(=O)(c1ccccc1Cl)N1CC(c2nc(Cc3ccccc3)no2)C1	inconclusive: 50.1 µM [inhibitor, single point]		
COc1ccc(-c2cn3cc(C(=O)NCC(F)(F)F)nc3s2)cc1	inconclusive: 56.2 µM [inhibitor, partial curve, poor fit]		
O=C(c1cc(Cl)ccc1F)N1CCN(c2cc(C(F)(F)F)ncn2)CC1	inconclusive: 39.8 µM [inhibitor, partial curve, poor fit]		
O=[S+]([O-])(c1cccs1)N1CCC2(CC1)CC(Cc1ccccc1)=NO2	inconclusive: 44.7 µM [inhibitor, partial curve, poor fit]		
Cc1ccc(OCC(=O)N2CCC3(CC2)CC(OCC2CC2)CCO3)cc1 (centres undefined)	inconclusive: 70.8 µM [inhibitor, single point]		
CCn1ncc(N2CCC(NC(=O)c3cccc(OC)c3OC)CC2)cc1=O		inactive: -19.3%	
O=C(Cc1cccs1)Nc1ccc2c(c1)CN(Cc1ccccc1F)C(=O)CO2	inconclusive: 50.1 µM [inhibitor, partial curve, poor fit]		
CC(=O)Nc1ccc(NC(=O)c2cc3n(n2)CC(c2ccc(Br)cc2)OC3)cc1 (centres undefined)	inconclusive: 44.7 µM [inhibitor, partial curve, poor fit]		
Cc1ccc(Cn2ccn3nc4c(c3c2=O)CCCC4)cc1	inconclusive: 39.8 µM [inhibitor, partial curve, poor fit]		
COc1ccc2[nH]c3c(c2c1)CCNC31CCN(C(=O)Cc2cccnc2)CC1		inactive: -21%	
Cn1cc(-c2ccc(F)c(Cl)c2)c2nc(CN3CC[S+](=O)([O-])CC3)cn2c1=O	inconclusive: 89.1 µM [inhibitor, partial curve]		
O=C(Nc1ccccc1)O[C@@H]1CO[C@H]2[C@@H]1OC[C@@H]2NC(=O)c1ccc(C(F)(F)F)cc1	inconclusive: 25.1 µM [inhibitor, full curve]		
Cc1cc2nc3n(c(=O)c2n1CC(=O)NCc1ccc(F)cc1)CCCC3	inconclusive: 28.2 µM [inhibitor, full curve]		
Cn1ncc2c(C(=O)NCc3ccc(C(F)(F)F)cc3)cc(-c3ccc(Cl)cc3Cl)nc21	inconclusive: 39.8 µM [inhibitor, partial curve, poor fit]		
